In all, about 310,000 compounds went through this assay and about 14,000 (4.5%) showed an effect of 50% or more. The effect is printed as a negative number. The list shows a part of the results.
The molecules below were run against human ether-à-go-go-related gene (hERG) potassium channel (human, UniProt Q12809) (assay: primary screen, population patch clamp on CHO cells stably expressing hERG).
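Note: peak tail current of the secondary pulse compared with the same well before compound.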

human ether-à-go-go-related gene (hERG) potassium channel, sequence (Q12809 whole entry, looked up): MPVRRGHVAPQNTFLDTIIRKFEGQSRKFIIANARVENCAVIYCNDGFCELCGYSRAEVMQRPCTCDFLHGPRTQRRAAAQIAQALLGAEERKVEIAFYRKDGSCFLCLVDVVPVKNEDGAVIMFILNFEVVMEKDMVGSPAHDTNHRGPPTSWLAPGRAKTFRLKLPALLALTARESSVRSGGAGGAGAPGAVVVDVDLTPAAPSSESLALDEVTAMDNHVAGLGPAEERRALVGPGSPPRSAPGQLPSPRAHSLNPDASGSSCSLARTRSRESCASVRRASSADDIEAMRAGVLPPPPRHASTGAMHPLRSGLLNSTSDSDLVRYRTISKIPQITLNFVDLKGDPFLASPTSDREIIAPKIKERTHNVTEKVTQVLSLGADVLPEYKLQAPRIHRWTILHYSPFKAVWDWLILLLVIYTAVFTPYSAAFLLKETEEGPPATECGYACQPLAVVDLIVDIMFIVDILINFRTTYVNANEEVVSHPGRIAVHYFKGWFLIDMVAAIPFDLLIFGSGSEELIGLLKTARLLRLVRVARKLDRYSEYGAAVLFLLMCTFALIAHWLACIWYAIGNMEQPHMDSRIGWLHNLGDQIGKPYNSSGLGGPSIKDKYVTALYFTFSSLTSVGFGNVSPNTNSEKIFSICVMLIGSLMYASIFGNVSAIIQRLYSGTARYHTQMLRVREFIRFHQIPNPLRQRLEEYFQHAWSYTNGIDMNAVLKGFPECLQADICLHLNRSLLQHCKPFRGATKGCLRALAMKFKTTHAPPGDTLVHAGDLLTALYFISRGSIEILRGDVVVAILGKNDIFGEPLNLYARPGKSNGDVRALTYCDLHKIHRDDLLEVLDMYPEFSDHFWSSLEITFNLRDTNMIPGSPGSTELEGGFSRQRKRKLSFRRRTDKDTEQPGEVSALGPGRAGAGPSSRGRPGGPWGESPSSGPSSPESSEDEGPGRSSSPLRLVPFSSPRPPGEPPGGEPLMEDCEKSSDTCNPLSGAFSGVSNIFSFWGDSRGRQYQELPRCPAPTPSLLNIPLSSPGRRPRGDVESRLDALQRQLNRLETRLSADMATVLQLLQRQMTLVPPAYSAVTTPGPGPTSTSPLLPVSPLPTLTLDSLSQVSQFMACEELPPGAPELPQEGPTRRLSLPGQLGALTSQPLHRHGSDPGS

| Structure (SMILES) | hERG current change (%, negative = inhibition) at 10uM |
| --- | --- |
| COc1ccc(CC(=O)O/N=C(\N)c2cccc([N+](=O)[O-])c2)cc1 | -17.4% |
| Nc1nonc1-c1nc2ccccc2n1CC(=O)N1CCCCC1 | 21% |
| CCC(=O)Oc1ccc(C(=O)Nc2cccc(C(=O)NC(C)(C)C)c2)cc1 | -6.74% |
| C/C(N)=C(/C#N)C(=O)CSc1n[nH]c(-c2ccccc2Br)n1 | -18% |
| COc1cc(NC(=O)C2=C(N3CCOCC3)/C(=C\c3ccc(N(C)C)cc3)CCC2)cc(OC)c1OC | 15.4% |
| CC1Oc2ccccc2N(CC(=O)N(Cc2ccccc2)Cc2ccccn2)C1=O (stereo not shown) | 0.288% |
| O=C(CNc1n[nH]c(=O)[nH]c1=O)N/N=C/c1ccccc1 | 2.89% |
| Cc1ccc2nc3c(c(C(=O)O)c2c1)CCC3 | 2.29% |
| Cc1nc(NS(=O)(=O)c2cccc([N+](=O)[O-])c2)sc1C(C)(C)C | -5.09% |
| CCCCSc1nnc([C@H](CC(C)C)NC(=O)OC(C)(C)C)o1 | -18.6% |
| c1ccc(CN2CCC(Nc3nc(-c4ccccc4)nc4ccccc34)CC2)cc1 | -20.5% |
| O=C(Nc1cccs1)Nc1ccc(F)cc1F | 0.132% |
| O=C(CSc1nnc(-c2ccco2)o1)c1ccccc1 | 5.97% |
| N#C/C(=C/c1cc[nH]c1)C(N)=S | 14.2% |
| COc1ccc(C)cc1S(=O)(=O)N1CCN(C(=O)c2ncoc2-c2ccccc2C)CC1 | 5.28% |
| Cc1cc(C)cc(NC(=O)COC(=O)c2cccc(S(=O)(=O)N3CCCCC3)c2)c1 | 4.51% |
| CC1(C)Cc2ccccc2/C(=C/C(=O)N2CCCCCC2)N1.Cl | 8.89% |
| CC(NC(=O)COC(=O)Cc1ccsc1)C1CC2CCC1C2 (stereo not shown) | -12.1% |
| Fc1ccc(-c2nnc3n2CCCCC3)cc1 | 4.54% |
| CC(Cc1cccnc1)NC(=O)c1cc(COc2ccc(F)cc2Cl)on1 (stereo not shown) | -35.4% |
| CCC1CCCCN1C(=O)COc1cc(=O)n(C)c2ccccc12 (stereo not shown) | -10.1% |
| COc1ccccc1C1C(C#N)=C(N)Oc2c1oc(CO)cc2=O (stereo not shown) | -4.95% |
| CCN(CC)c1ccc(N2C(=O)/C(=C/c3ccccn3)SC2=S)cc1 | 13.7% |
| CN1C(=O)C2C(c3ccc(N(C)C)cc3)=NN(Cc3ccccc3)C2C1=O (stereo not shown) | -1.7% |
| CCOc1ccccc1NC(=O)n1ncc2c(C)cccc21 | 13.6% |

— paper PMC4336329 (PLoS ONE, 2015)
